Data: the supplement of paper PMC4996465
Viability of KB3-1 and Nalm-6 cells after 48 h of drug alone (CellTiter-Glo), 11 doses over about 4.5 log units. % of DMSO wells, lower = more cell loss; AC50 from the fitted curve, lower = more potent. No active / inactive call. Nalm-6 was screened in two runs. AC50 is listed only for well-fitted inhibitory curves. KB3-1 is a HeLa-derived carcinoma line, Nalm-6 a B-cell precursor leukaemia line.

Legend:
[1] = test system: Nalm-6; experiment: viability (% of DMSO control); higher = more viable cells
Experimental: (§1)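 Eleven-dose screen of the NCATS MIPE 3 library on cells without co-treatment; CellTiter-Glo after 48 h, as % of DMSO wells.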

[2] = test system: KB3-1; experiment: as above
Experimental: as §1

[3] = test system: Nalm-6; experiment: log AC50 of viability decrease (48 h) (log10 M); higher = less potent
Experimental: (§2)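 Eleven-dose screen of the NCATS MIPE 3 library on cells without co-treatment; CellTiter-Glo after 48 h. AC50 from the curve fit; only inhibitory curves of the better fit classes are listed.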

[4] = test system: KB3-1; experiment: as above
Experimental: as §2

SMILES | viability ([1]; run: 1, 0.00078 µM) [%] | viability ([1]; run: 1, 0.00234 µM) [%] | viability ([1]; run: 1, 0.00702 µM) [%] | viability ([1]; run: 1, 0.0211 µM) [%] | viability ([1]; run: 1, 0.0632 µM) [%] | viability ([1]; run: 1, 0.19 µM) [%] | viability ([1]; run: 1, 0.569 µM) [%] | viability ([1]; run: 1, 1.71 µM) [%] | viability ([1]; run: 1, 5.12 µM) [%] | viability ([1]; run: 1, 15.4 µM) [%] | viability ([1]; run: 1, 46.1 µM) [%] | viability ([1]; run: 2, 0.00078 µM) [%] | viability ([1]; run: 2, 0.00234 µM) [%] | viability ([1]; run: 2, 0.00702 µM) [%] | viability ([1]; run: 2, 0.0211 µM) [%] | viability ([1]; run: 2, 0.0632 µM) [%] | viability ([1]; run: 2, 0.19 µM) [%] | viability ([1]; run: 2, 0.569 µM) [%] | viability ([1]; run: 2, 1.71 µM) [%] | viability ([1]; run: 2, 5.12 µM) [%] | viability ([1]; run: 2, 15.4 µM) [%] | viability ([1]; run: 2, 46.1 µM) [%] | viability ([2]; 0.00078 µM) [%] | viability ([2]; 0.00234 µM) [%] | viability ([2]; 0.00702 µM) [%] | viability ([2]; 0.0211 µM) [%] | viability ([2]; 0.0632 µM) [%] | viability ([2]; 0.19 µM) [%] | viability ([2]; 0.569 µM) [%] | viability ([2]; 1.71 µM) [%] | viability ([2]; 5.12 µM) [%] | viability ([2]; 15.4 µM) [%] | viability ([2]; 46.1 µM) [%] | log AC50 of viability decrease ([3]; run: 1) | log AC50 of viability decrease ([3]; run: 2) | log AC50 of viability decrease [4]
CCCCc1ccc(NS(=O)(=O)c2ccc(C)c(C(=O)N3CCN(c4cccc(C)c4C)CC3)c2)cc1 [IDH-001] | 84.9 | 89.7 | 104 | 105 | 107 | 102 | 120 | 120 | 109 | 79.6 | 6.04 | 96.5 | 96.1 | 101 | 102 | 113 | 104 | 110 | 102 | 109 | 75.7 | 4.31 | 95.5 | 99.2 | 99 | 101 | 104 | 102 | 103 | 107 | 103 | 88.2 | 6.45 | -4.68 | -4.68 | -4.63
CNC(=O)c1cc(Oc2ccc(NC(=O)Nc3ccc(Cl)c(C(F)(F)F)c3)cc2)ccn1 [Sorafenib] | 98.9 | 103 | 96.7 | 104 | 96.2 | 101 | 109 | 97.5 | 88.5 | 43.2 | 0.504 | 100 | 98.8 | 105 | 103 | 107 | 102 | 110 | 106 | 96 | 45.6 | 2.28 | 101 | 99.5 | 105 | 106 | 105 | 105 | 109 | 103 | 94.9 | 77.7 | 15 | -4.83 | -4.83 | -4.68
CC(C)(C)OC(=O)Nc1ccc(-c2cc(C(=O)NCCCCCCC(=O)NO)no2)cc1 [ISOX] | 113 | 113 | 121 | 104 | 84.3 | 45.9 | 3.68 | 2.58 | 2.24 | 1.89 | 2.25 | 112 | 111 | 110 | 89.4 | 68.9 | 36.7 | 6.21 | 2.83 | 2.64 | 1.91 | 3.06 | 103 | 105 | 105 | 99.2 | 91.5 | 85.1 | 61.4 | 46.8 | 30.1 | 25 | 6.13 | -6.88 | -7.03 | -5.93
CCOc1cc2ncc(C#N)c(Nc3ccc(OCc4ccccn4)c(Cl)c3)c2cc1NC(=O)/C=C/CN(C)C [Neratinib] | 111 | 115 | 114 | 125 | 112 | 120 | 111 | 87.7 | 59.4 | 1.99 | -0.315 | 110 | 111 | 108 | 110 | 106 | 102 | 101 | 82.5 | 49.1 | 13.7 | 0.28 | 106 | 111 | 106 | 106 | 101 | 101 | 93.7 | 72.6 | 68.5 | 65.1 | 57.9 | -5.28 | -5.33 | -6.03
Cc1nc(-c2ccc(-c3ccc(C(=O)N4CCc5cc6c(cc54)C4(CCN(C)CC4)CO6)cc3)c(C)c2)no1 | 97.6 | 103 | 94.5 | 74.9 | 60.4 | 3.61 | -1.05 | -1.76 | -2.1 | -2.05 | -2.25 | 76.1 | 82.4 | 99.6 | 102 | 102 | 105 | 112 | 108 | 103 | 84.4 | 1.51 | 97.4 | 98.1 | 95.8 | 100 | 101 | 94.7 | 93.3 | 99.4 | 101 | 87.4 | 0.488 | -7.13 | -4.63 | -4.58
COc1cc(N2CCC(N3CCN(C)CC3)CC2)ccc1Nc1ncc(Cl)c(Nc2ccccc2S(=O)(=O)C(C)C)n1 [TAE-684] | 99.7 | 98.6 | 110 | 97.7 | 99.3 | 78.3 | 64.7 | 40.7 | 37 | 22.6 | 2.38 | 5.5 | 107 | 108 | 101 | 97.7 | 95 | 76.8 | 51.7 | 43.2 | 23.6 | 2.6 | 103 | 104 | 102 | 96.5 | 91.2 | 85.6 | 66.4 | 44.7 | 46.4 | 48 | 1.66 | -5.83 |  | -5.28
C[C@@H]1C[C@H]2[C@@H]3\C=C(C)/C4=C/C5=C(C[C@]4(C)[C@H]3[C@@H](O)C[C@]2(C)[C@@]1(O)C(=O)COC(C)=O)C=N[N]5C6=CC=CC=C6 [Cortivazol] | 55.1 | 45 | 43.1 | 40.1 | 41.5 | 40.1 | 42.9 | 27.1 | 8.8 | 6.31 | 0.567 | 51.3 | 44.5 | 40.5 | 40.8 | 38.1 | 40 | 38 | 13.3 | 4.39 | 3.74 | -0.0303 | 105 | 104 | 104 | 111 | 101 | 99.5 | 103 | 105 | 92.5 | 76.2 | 1.82 | -5.43 | -5.88 | -4.58
CC(C)C[C@H](NC(=O)[C@H](Cc1ccccc1)NC(=O)c1cnccn1)B(O)O [Bortezomib] | 0.264 | -0.0617 | 0.93 | 1.22 | 1.48 | 1.69 | 2.2 | 1.85 | 1.61 | 1.75 | 1.66 | 119 | 103 | 12.5 | 5.5 | 5 | 4.11 | 3.05 | 2.76 | 2.22 | 1.92 | 1.8 | 98.9 | 101 | 83.8 | 31.3 | 8.09 | 5.44 | 3.31 | 2 | 1.64 | 1.88 | 2.73 |  | -8.43 | -7.83
c1cc(-c2cnn3cc(-c4ccc(OCCN5CCCCC5)cc4)cnc23)ccn1 [Dorsomorphin] | 110 | 97.8 | 105 | 111 | 110 | 109 | 106 | 92.2 | 80.8 | 56.8 | 3.61 | 89.5 | 104 | 99.5 | 103 | 100 | 95 | 99.7 | 88.4 | 2.11 | 45.8 | 5.16 | 107 | 109 | 99.6 | 103 | 103 | 109 | 116 | 116 | 110 | 59.7 | 1.36 | -4.78 | -5.58 | -4.78
C[N]1C=NC=C1[C@@](N)(C2=CC=C(Cl)C=C2)C3=CC=C4N(C)C(=O)\C=C(\C5=CC=CC(=C5)Cl)C4=C3 [Tipifarnib] | 93.9 | 106 | 86.5 | 74.8 | 76.8 | 64.3 | 47.4 | 50 | 37.9 | 33.4 | -0.561 | 107 | 102 | 95.7 | 82 | 84.1 | 79 | 69.9 | 70.6 | 53.7 | 51.1 | 0.762 | 91.5 | 99.2 | 91.9 | 86 | 78.8 | 69.9 | 70.3 | 74.3 | 63.8 | 51.9 | 0.273 | -5.83 | -4.93 | -4.68
